ChEMBL document CHEMBL4888484, “Replenishing the malaria drug discovery pipeline: Screening and hit evaluation of the MMV Hit Generation Library 1 (HGL1) against asexual blood stage Plasmodium falciparum ,using a nano luciferase reporter read-out” (2022)
In all, about 150,000 compounds went through this assay and about 540 (0.36%) showed an effect of 50% or more. The list shows a part of the results.

tested on: Plasmodium falciparum; assay: Primary screen in NF54 nanoGlo assay, in single point, at 2uM, 72h; a lower Z score goes with more inhibition; type: functional, Erythrocyte; conditions: timepoint 72 hour

| Compound | % Inhibition | Z score |
| --- | --- | --- |
| O=C1CC[C@@H](CN(Cc2ccccc2)C(=O)C2CC(CCc3ccccc3)=NO2)N1 (stereo partly drawn) | -9% | 1.74 |
| COc1cc(NC(=O)Cn2c(C)nc3onc(C)c3c2=O)cc(OC)c1 | 4% | -0.51 |
| CCC(=O)N(Cc1ccc(F)cc1)c1ccc(CC(=O)NCc2ccc(F)cc2)cc1 | -13% | 1.63 |
| CCOC(=O)N1CCC(NC(=O)c2cc(C)c(CC)n(C)c2=O)CC1 | -14% | 2.42 |
| COC1CC(N(C)S(=O)(=O)c2ccc(C#N)nc2)C12CCC2 (stereo not drawn) | 3% | -0.33 |
| CC(C)Cc1nc(Cc2nc3ccccc3[nH]2)n(-c2ccccn2)n1 | -5% | 0.69 |
| CC1CN(Cc2cccc(C#N)c2)C1C (stereo not drawn) | -10% | 0.99 |
| C[C@H]1CCN(C(=O)c2cccc3c2CCCN3)[C@@H](C)C1 | 12% | -1.41 |
| CC1=C[C@@H](c2ccc(Cl)cc2)N2N=CNC2=N1 | 29% | -3.28 |
| Cc1nsc(NC(=O)c2cccc(=O)n2CCOc2ccccc2Cl)n1 | -9% | 1.42 |
| CCc1oc(C(=O)NCCc2ccc(O)cc2)cc1CN(CC)CC | -8% | 1.62 |
| CCC[C@@H](CNC(=O)[C@H]1CC[C@H](O)CC1)N(C)C | -1% | 0.18 |
| CN(Cc1cc[nH]n1)c1ccc(F)cn1 | -5% | 0.9 |
| OC1(CN2CCC(C(F)(F)F)(C(F)(F)F)C2)CCOCC1 | 3% | -0.33 |
| CCC[C@H]1C(=O)NCCN1C(=O)c1cnn(CC2CCOCC2)c1C | 37% | -0.98 |
| CCn1c(CN2CCN(c3ncccn3)CC2)nc2cc(F)ccc21 | -16% | 2.05 |
| CN(Cc1csc(-c2ccccn2)n1)C1C2CCOC2C1(C)C (stereo not drawn) | -14% | 1.51 |
| c1cc2c(c(-c3nc(C4CCC4)n[nH]3)c1)OCC2 | -14% | 2.71 |
| O=C(CC1CCCC1)Nc1ccccc1-c1nc2ccccc2s1 | -2% | 0.28 |
| CCN1C[C@H](CN(C)C(=O)c2ccc3c(c2)CCO3)Oc2ccccc21 | -15% | 1.89 |
| C[C@H](NC(=O)N1CCN(C)CCN(C)CC1)c1cccc(O)c1 | -10% | 1.28 |

| Compound | % Inhibition | Z score |
| --- | --- | --- |
| O=C(NC1CC1)C1CCN(c2nc3ccc(-c4cccnc4)nc3s2)CC1 | -14% | 1.53 |
| CCOCCOCc1cccc(NC(=O)c2cncc(O)c2)c1C | 6% | -1.04 |
| FC(F)(F)c1cccc(N2CCN(c3ncnc4c3nc3n4CCCCC3)CC2)c1 | 0% | 0.03 |
| CC(=O)NC1CCN(C(=O)NCC2(C)OCCc3sccc32)C1 (stereo not drawn) | -3% | 0.53 |
| CC(C)c1cc([C@@H]2CCCN2C(=O)c2cnn3c(C(F)(F)F)cc(-c4ccccc4)nc23)no1 | -13% | 1.81 |
| O=S1(=O)CCN(c2cc(NS(=O)(=O)c3cccc(-n4cnnn4)c3)ccc2F)CC1 | -14% | 2.18 |
| CCOC(=O)Oc1c(OC)cc(C(=O)Nc2ccc3c(c2)sc(=O)n3C)cc1OC | 33% | -4.43 |
| O=C1C[C@H](c2ccc3nccnc3c2)c2cn(Cc3ccccc3)c3cccc(c23)N1 | -16% | 2.65 |
| Cc1ccc(OCC[C@H]2CCN(C(=O)CCn3nc(C)cc3C)C2)cc1 | -7% | 1.33 |
| CC1(C)C[C@H](CC(=O)Nc2ccccn2)C(=O)O1 | 3% | -0.41 |
| COc1cc(C(=O)NC2CCN(C)C(C)C2)cc(C)n1 (stereo not drawn) | -5% | 0.78 |
| O=C(NCc1ccccc1F)C1CN(c2nc3ccccc3s2)C1 | -4% | 0.64 |
| CN(C[C@H]1CCCCO1)c1cc(NC2CC2)nc(N)n1 | -5% | 0.75 |
| COc1cc(CN2CCCC[C@H]2c2ncc[nH]2)cc(Cl)c1OCC(N)=O | -1% | 0.21 |
| O=C(CC[C@H]1CCCO1)Nc1nc(-c2ccc3c(c2)OCO3)cs1 | -1% | 0.21 |
| Cc1ccc(CNC(=O)[C@H]2CCc3cncn3C2)c(=O)n1C | -3% | 0.45 |
| CCC(C)(C)NC(=O)CN1CCCC(C)(C)CC1 | -10% | 1.21 |
| COCC(=O)N1CCC[C@H]1c1nn(C)c(=O)n1Cc1ccccc1 | -4% | 0.55 |
| CN(C1C=CCCC1)C(CC(N)=O)c1ccccc1 (stereo not drawn) | 1% | -0.25 |
| Cc1csc(N(CC(F)(F)F)C(=O)c2cn(C(C)(C)C)nn2)n1 | 3% | -0.55 |
| CCn1cc(CNC(=O)c2cnc(-c3cccnc3)nc2)cn1 | -10% | 1.45 |

| Compound | % Inhibition | Z score |
| --- | --- | --- |
| CC(C)(C)OC(=O)NC1CC(NCC(=O)NCC2CC2)C1(C)C (stereo not drawn) | 0% | 0.05 |
| CS(=O)(=O)N1CCC2(CC1)C[C@@H]2NC(=O)c1ccncc1 | -12% | 1.44 |
| c1cc(COc2ccc3c(c2)OCO3)no1 | 27% | -3.08 |
| O=C(NCCC1=CCCN(Cc2c[nH]cn2)C1)Nc1ccccc1 | -6% | 0.89 |
| CC1CCCCN1C(=O)C1CCCN(S(=O)(=O)c2ccc3c(c2)NC(=O)CO3)C1 (stereo not drawn) | -3% | 0.52 |
| COC[C@H]1CCCN(C(=O)CC(C)(C)C#N)CC1 | -5% | 0.91 |
| N#C[C@@H](NC(=O)c1cc2n(n1)CCCO2)c1ccc(OC(F)(F)F)cc1 | -17% | 1.95 |
| CCOc1ccc(C(=O)Nc2cc(C(F)(F)F)ccc2Cl)nn1 | -8% | 0.87 |
| COc1cccc(CN2CCCn3cccc3[C@H]2c2ccc(C)c(C)c2)c1OC | -5% | 1.01 |
| CCOC(=O)C1CCN(C(=O)c2cn3c(n2)CC[C@H](c2cc(C(F)(F)F)cc(C(F)(F)F)c2)C3)CC1 | -6% | 0.97 |
| COc1ncc(NC(=O)c2ccco2)c(N2CCCC2)n1 | 12% | -2.18 |
| O=C(CN1C(=O)NC2(CCCC2)C1=O)N1CCO[C@H](c2ccccc2)C1 | -9% | 1.24 |
| COC(=O)CNc1cccc(C(N)=O)c1C | -1% | 0.17 |
| COc1cccc(OC)c1C(=O)N[C@@H](C)c1nnc(C)o1 | -2% | 0.32 |
| Cc1nc(N2CCN(C(=O)c3ccco3)CC2)c2c(C)nn(-c3ccccc3C)c2n1 | -21% | 2.26 |
| CC(=O)N1C(=O)COC[C@@H]1[C@H](O)c1ccc(NC(=O)C2CCC2)cc1 | -9% | 1.62 |
| C1CC(c2nc(C3(CC4CC4)CCN(C4CCOCC4)CC3)no2)CCO1 | -9% | 1.25 |
| Cc1csc(-c2nccn2-c2ccc3cn[nH]c3c2)n1 | 7% | -0.66 |
| O=C(Cc1ccc(Cl)cc1)N1CCC([C@H]2CCNC2)CC1 | 2% | -0.28 |
| CCN(CC)c1onc(-c2ccccc2)c1CN(CCN(C)C)C(=O)c1ccccc1 | 0% | 0.02 |
| CC(C)[C@@](C)(C#N)NC(=O)CNc1ccc(F)c(F)c1F | -6% | 0.75 |

| Compound | % Inhibition | Z score |
| --- | --- | --- |
| CCOC(=O)c1ccc(NC(=O)[C@H](C)n2nc(-c3ccccc3)c3cc(Cl)ccc32)cc1 | 1% | -0.24 |
| O=C(CCCn1cncn1)N1CCN(c2ccc3cn[nH]c3c2)C(=O)C1 | 0% | 0.02 |
| C[C@H]1COc2ccc(CN3CCN(C)CC3)cc2CN1C(=O)CCCc1ccccc1 | -6% | 0.56 |
| O=S(=O)(c1cccnc1)N1CC2(CC2)c2ccccc21 | 0% | 0.01 |
| CC(=O)c1ccc(N2CCN(C(=O)NC3CC3)CC2)cc1 | 28% | -3.15 |
| COc1ccccc1N(CCC(N)=O)C(=O)CN1CCC[C@H]1c1nnc2ccccn12 | 13% | -2.49 |
| Oc1ncnc2nc(-c3ccccc3)cnc12 | 9% | -1.2 |
| Cc1ccccc1S(=O)(=O)Nc1ccc(N2CCCCCC2)c(C(=O)O)c1 | -15% | 1.49 |
| CC(C)CC1(C(=O)N(C)Cc2nnc3n2CCN(C)C3=O)CCCC1 | -9% | 0.72 |
| COC1(CNC(=O)Nc2nc(Cc3ccccc3)cs2)CCOCC1 | 7% | -1.01 |
| CCc1cc(N2CCN(C3CCN(c4ccc(C)cc4)CC3)CC2)ncn1 | -26% | 2.59 |
| CCN1CC(=O)N[C@H]2CN(C(=O)c3cnn(CC)c3C)CC[C@@H]2OCc2cccc(c2)Oc2cc(OC(C)C)cc(c2)C1=O | -5% | 0.73 |
| CCn1c(N)c2c(=O)n(CC)c(-c3ccc(C)cc3)cc2c(C#N)c1=O | -17% | 1.95 |
| Cn1cccc1[C@@H](O)CCNC(=O)C1CCCCC1 | 0% | -0.03 |
| COc1cccc(CNC(=O)CON=C(N)Cc2ccccc2)c1 | -4% | 0.49 |
| Cc1ccc(C(=O)N2CCC3(CCNC(=O)CC3)CC2)n1C(F)F | 2% | -0.26 |
| Cc1n[nH]c(=O)c(C(=O)Nc2cccc(Cl)c2)c1C | -6% | 0.77 |
| O=C(NCC[C@@H](CCO)c1ccsc1)c1cccs1 | 8% | -1.15 |
| Cc1csc(C2(NS(=O)(=O)CC34CCC(CC3)C4)CCC2)n1 | -9% | 1.7 |
| CN(CCc1cnn(C)c1)[C@@H](C(=O)O)c1cccc2c1OCC2 | -10% | 1.67 |
| O=C(NCCc1nccn1Cc1ccccc1)c1cc2c(F)cccc2s1 | -34% | 4.03 |
